# Some of the results follow. These are further read-outs of the screen, such as a control signal, another cell line or another target. No call is given for them.
# How the values were obtained:
# Assay in all cases: Primary Screen for Target Class Profiling of Small Molecule Inhibitors of Methyltransferases
# [1] = biological target: Glycine N-methyltransferase (Homo sapiens) (UniProt Q14749); conditions: purified enzyme, MTase-Glo SAH luminescence; measured here: GNMT inhibition; at 40 µM; stronger effect = lower value
# Summary of the method: (§1)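 Each enzyme was reacted with SAM and its substrate, with compounds tested once at 40 uM; SAH formed was read by MTase-Glo luminescence.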
# [2] = biological target: Guanidinoacetate N-methyltransferase (Homo sapiens) (UniProt Q14353); conditions: purified enzyme, MTase-Glo SAH luminescence; measured here: GAMT inhibition; at 40 µM; stronger effect = lower value
# Summary of the method: as §1
# [3] = biological target: Histamine N-methyltransferase (Homo sapiens) (UniProt P50135); conditions: purified enzyme, MTase-Glo SAH luminescence; measured here: HNMT inhibition; at 40 µM; stronger effect = lower value
# Summary of the method: as §1
# [4] = biological target: Nicotinamide N-methyltransferase (Homo sapiens) (UniProt P40261); conditions: purified enzyme, MTase-Glo SAH luminescence; measured here: NNMT inhibition; at 40 µM; stronger effect = lower value
# Summary of the method: as §1
# [5] = biological target: Phenylethanolamine N-methyltransferase (Homo sapiens) (UniProt P11086); conditions: purified enzyme, MTase-Glo SAH luminescence; measured here: PNMT inhibition; at 40 µM; stronger effect = lower value
# Summary of the method: as §1
# On the % scale 0 is the no-effect control and ±100 the full control effect.
Compound,"activity change, negative = inhibition [1] [%]","activity change, negative = inhibition [2] [%]","activity change, negative = inhibition [3] [%]","activity change, negative = inhibition [4] [%]","activity change, negative = inhibition [5] [%]"
COc1ccc2c3c4n(c2c1)[C@@H](C=C(C)C)OOC(C)(C)C[C@@H]4N1C(=O)[C@@H]2CCCN2C(=O)[C@]1(O)[C@H]3OCC=C(C)C,5.17,0.601,4.34,-15.1,5.47
CCCCN1[C@@H]2CC[C@H]1CC(OC(c1ccc(F)cc1)c1ccc(F)cc1)C2 (stereo not given in full),4.03,16.1,-51.7,-20.6,2.44
O=C1NCCCCCN(Cc2cccnc2)[C@H]2CCC[C@@H]12,-1.75,1.67,1.01,3,6.17
O=C(NCc1ccco1)N1Cc2ccccc2-n2cccc2C1c1ccc(Cl)cc1 (stereo not given),1.47,0.658,2.43,-1.66,5.19
Cc1ccc(C2c3cccn3-c3ccccc3CN2C(=O)Nc2cc(C)cc(C)c2)cc1 (stereo not given),3.11,-4.26,-0.361,-6.16,-4.85
O=[S+]1([O-])NCC2(CCN(Cc3ccccn3)C2)Nc2ccccc21 (stereo not given),-5.42,-7.26,-3.02,-11.2,-6.65
Cn1cc(CNCC2(CO)C[C@@H](O)[C@@H](O)C2)c2ccccc21 (stereo not given in full),-2.83,-2.13,-5.14,-8.78,11.6
COc1ccc(C2c3cccn3-c3ccccc3CN2C(=O)Nc2ccc(F)cc2F)cc1OC (stereo not given),5.58,0,-1.34,-2.18,2.77
C/C=C(\C)C(=O)OC1CC2C(CC=C3CC(OC4CC(OC)C(OC5CC(OC)C(OC6CC(OC)C(OC7CC(OC)C(O)C(C)O7)C(C)O6)C(C)O5)C(C)O4)CCC32C)C2(O)CCC(C(C)=O)C12C (stereo not given),0,6.92,1.52,-5.1,5.69
Cc1ccccc1C1c2cccn2-c2ccccc2CN1C(=O)Nc1cccc(C)c1C (stereo not given),0.735,1.94,-4.08,3.1,2.13
CCOc1ccc(C2c3cccn3-c3ccccc3CN2C(=O)Nc2ccc(C)c(C)c2)cc1 (stereo not given),-4.18,0,7.2,6.23,2.23
COc1ccc(Cl)cc1NC(=O)N1Cc2ccccc2-n2cccc2C1c1ccc(N(C)C)cc1 (stereo not given),5.55,3.41,-6.17,1.06,5.29
CCOc1ccc(NC(=O)N2Cc3ccccc3-n3cccc3C2c2cccs2)cc1 (stereo not given),9.04,1.8,2,3.95,7.66
C=C(CO)[C@@]12O[C@@H]1[C@@]1(C)C(=CC2=O)CC[C@@H](O)[C@@H]1C,0,7.14,12.1,-4.33,3.52
CCOc1ccccc1NC(=O)N1Cc2ccccc2-n2cccc2C1c1cccc(C)c1 (stereo not given),5.8,2.23,6.56,1.45,-15.1
COc1ccc(C)cc1NC(=O)N1Cc2ccccc2-n2cccc2C1C (stereo not given),3.31,0,-0.871,-3.78,5.14
CC[C@H]1CN2CC[C@H]1C[C@@H]2CN(Cc1cccs1)Cc1cccs1,-6.68,-7.49,-39.9,-25,-7.37
C[C@H]1O[C@@H](O[C@H]2CC[C@]3(C=O)C4CC[C@]5(C)[C@@H](C6=CC(=O)OC6)CC[C@]5(O)[C@@H]4CC[C@]3(O)C2)C[C@@H](O)[C@@H]1O (stereo not given in full),-2.22,-9.91,3.35,-20.3,-0.844
CCC1c2cccn2-c2ccccc2CN1C(=O)NCc1ccc(F)cc1 (stereo not given),-2.39,-2.4,-13.5,-10,-3.86
COc1cccc(NC(=O)N2Cc3ccccc3-n3cccc3C2C)c1 (stereo not given),10,0,3.33,2.13,6.42
COc1ccc(C2c3cccn3-c3ccccc3CN2C(=O)Nc2cccc(SC)c2)cc1 (stereo not given),3.23,4.72,-0.547,0.571,1.51
CC(N)[C@H](O)c1ccc(O)c(O)c1 (stereo not given in full),-24,11.6,1.64,-2.15,4.82
CSc1ccc(C2c3cccn3-c3ccccc3CN2C(=O)Nc2ccc(C)c(C)c2)cc1 (stereo not given),2.53,2.75,4.6,11.5,11.3
Cc1ncc(CNC(=O)N(CCCl)N=O)c(N)n1,-0.603,13.3,8.85,-1.39,3.87
CCOc1ccccc1NC(=O)N1Cc2ccccc2-n2cccc2C1c1cccc(Cl)c1 (stereo not given),14.8,1.8,7.63,6.51,6.92
Cc1c(Cl)cccc1NC(=O)N1Cc2ccccc2-n2cccc2C1C (stereo not given),4.14,0.586,-1.81,-3.29,3.71
CN1CCN(C(=O)Cc2c[nH]c3ncc(-c4ccnn4C)cc23)CC1,-8.61,-5.37,-5.58,-9.55,-15.4
O=C([C@H]1CN2CCC1C[C@@H]2Cn1cc(-c2ccccn2)nn1)N1CCOCC1 (stereo not given in full),-1.9,-3.89,-5.75,-7.27,-4.73
Cc1ccc(NC(=O)N2Cc3ccccc3-n3cccc3C2C(C)C)cc1Cl (stereo not given),0.303,0,5.19,2.64,2.07

# Source: PubChem BioAssay AID1745853 (National Center for Advancing Translational Sciences (NCATS), 2022)
